Tested on: human serpinB13 and other clade B serpins
Assay: Specificity of human anti-serpinB13 antibodies (ELISA, Luminex-based assay)
Type: binding
Settings: Luminex at 1.0 μg/mL
Experimental: Human anti-serpinB13 mAbs bind specifically to serpinB13, but not to other members of the clade B protein family. To produce human antibody to serpinB13, three rounds of biopanning were performed, using Fab library (1×10^11 antibody specificities), against recombinant human serpinB13 produced in baculovirus and immobilized on solid matrix. Screening of individual clones by ELISA led to DNA fingerprinting and sequencing of three unique clones. Positive antibodies were tested by ELISA for binding to the target antigen and cross-reactivity with other proteins. The Fab fragments were then reformatted into fully human full-length IgG1. […] It was also noticed that these mAbs recognize both mouse and human serpinB13.
Recombinant proteins and their expression. […]
Luminex assay. […] The data were expressed as fluorescence intensity (F.I.) due to serum binding activity in the presence of beads precoated with serpinB13 and after subtracting the average F.I. due to serum binding activity in the presence of beads precoated with control proteins, Gfp and Scgn (e.g. F.I^B13−[F.I.^GFP+F.I.^Scgn]/2). The samples were evaluated based on the level of F.I. and the degree of inhibition of binding to serpin-B13 coated beads with soluble serpinB13 (2.5 μg/mL), compared with the bovine serum albumin (BSA). […]

B1: mAbs1: fully human full-length IgG1 to serpinB13; Clone1 heavy SEQ ID NO:31, light SEQ ID NO:37 (antibody)
heavy: QVQLQESGGGVVQPGRSLRLSCAASGFTFSSYGMHWVRQAPGKGLEWVAVISYDGSNKYYADSVKGRFTISRDNSKNTLYLQMNSLRAEDTAVYYCARDLGAVIAVAGTSTPYNWFDPWGQGTLVTVSS[human IgG1 constant region omitted]
light: DVVMTQSPLSLPVTPGEPASISCRSRQSLLHSNGHNYLGWYLQKPGQSPQLLIYLASIRASGIPDRFSGSGSGTDFTLKISRVEAEDVGVYYCMQALQTPYTFGQGTKLEIKRTVAAPSVFIFPPSDEQLKSGTASVVCLLNNFYPREAKVQWKVDNALQSGNSQESVTEQDSKDSTYSLSSTLTLSKADYEKHKVYACEVTHQGLSSPVTKSFNRGEC
specificity of binding: serpinB13 versus other clade B serpins: specifically recognize human serpinB13 but no other serpins of clade B family
